Assay results from PubChem BioAssay AID504832 (National Center for Advancing Translational Sciences (NCATS), 2011).
In all, about 310,000 compounds went through this assay and about 18,000 (5.8%) were called active. This list was built around the results that the source calls inconclusive (neither active nor inactive); the mix of calls is not that of the screen. Calls come from the whole dose curve; as a rule, active = well fitted inhibition curve with a large enough effect; inconclusive = small, poorly fitted or top-dose-only effect, or another doubt; inactive = no such curve, though single readings can be large or run the other way. No potency is given beside an inconclusive call; the fits are too rough.

assay: Primary qHTS for delayed death inhibitors of the malarial parasite plastid, 48 hour incubation; conditions: P. falciparum luciferase growth in erythrocytes; series mostly up to 28.7 µM
In short: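 Firefly luciferase activity from engineered P. falciparum reports growth; inhibitors lower the luminescent signal. Cultures contained 2% hematocrit erythrocytes at 0.1% final parasitemia.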
Potency is the fitted concentration of half-maximal effect; tags give direction and shape of the fitted curve.

Structure (SMILES) | Potency
CCN(CC)CCC(O)(c1ccccc1)C1CCCCC1 (stereo unspecified) | inconclusive [inhibitor, full curve, poor fit]
CC(C)OCCCNC(=O)C1CCC(CNS(=O)(=O)c2cccc3nsnc23)CC1 (stereo unspecified) | inconclusive [inhibitor, full curve, poor fit]
COc1ccccc1C(=O)Nc1ccc(N2CCN(Cc3ccccc3)CC2)cc1 | inconclusive [inhibitor, single point]
CCN(c1cccc(C)c1)S(=O)(=O)c1cc2c3c(c1)CCC(=O)N3CCC2 | inconclusive [inhibitor, single point]
C=CCNC(=S)Nc1sc2c(c1C(=O)OCC)CCN(C(=O)OCC)C2 | active: 13.1 µM
CSc1nc(N)nc(SCC(=O)CC(=O)OC(C)C)c1C#N | inconclusive [inhibitor, single point]
COc1ccc(-c2nnc(Nc3nc4c(OC)cccc4s3)o2)c(OC)c1 | active: 10.4 µM
NC(=O)C1CCN(C(=O)COc2ccc3c4c(c(=O)oc3c2)CCC4)CC1 | inactive
C/C=C(\C)C(=O)O[C@H](c1cc2ccc(=O)oc2cc1OC)[C@@H](O)C(C)(C)O | inactive
Cc1nn(Cc2ccccc2)c(C)c1NC(=O)CCCn1nc([N+](=O)[O-])c(Cl)c1C | inactive
C=CCn1c(O)c(C(CC)=Nc2ccc(N(C)C)cc2)c(=O)[nH]c1=O | active: 0.657 µM
CC1(C)CC(=O)C2=C(C1)Oc1ncn(CCCn3ccnc3)c(=N)c1C2c1ccccc1 (stereo unspecified) | inconclusive [inhibitor, single point]
Nc1ncnc(Oc2cccc(C(F)(F)F)c2)c1[N+](=O)[O-] | inconclusive [inhibitor, full curve]
CCN(C(=O)c1cc2c(s1)-c1ccccc1OC2)c1cc(OC)ccc1OC | inconclusive [inhibitor, partial curve, poor fit]
O=C(NCc1ccc(Cl)cc1)C(=O)NCC1CCCN1S(=O)(=O)c1cccs1 (stereo unspecified) | inconclusive [inhibitor, single point]
CC(C)CSc1nc(N2CCOCC2)c2c(c1C#N)CC(C)(C)SC2 | active: 9.28 µM
N#Cc1ccccc1NC(=O)Nc1ccc(Cl)cc1 | inactive
CN(C(=O)COC(=O)c1ccc([N+](=O)[O-])cc1N)c1ccccc1 | inconclusive [inhibitor, single point]
Cc1ccc(C)c(N(CC(=O)Nc2ccccc2C(=O)NCc2ccco2)S(=O)(=O)c2ccccc2)c1 | active: 11.7 µM
CCOC(=O)c1nnsc1NC(=O)Nc1ccc(OC)cc1 | active: 4.15 µM
COc1ccc(-c2nc(CN3CCC(C(=O)NC4CCN(Cc5ccccc5)CC4)CC3)c(C)o2)cc1OC | inconclusive [inhibitor, full curve]
CC(C)(C)NC(=S)Nc1ccc(Nc2ccccc2)cc1 | inconclusive [inhibitor, partial curve]

Structure (SMILES) | Potency
Cc1nn(-c2ccc(N3CCCCC3)nn2)c(C)c1CCC(=O)Nc1cc(F)ccc1F | inactive
Cc1cc(NC(=O)CSc2nc3ccccc3n2CC(=O)N2CCC(C)CC2)no1 | inconclusive [inhibitor, single point]
COc1ccc(Cn2c3ccc(OC)cc3c3nc4ccccc4nc32)cc1 | inactive
COc1cccc(NC(=O)CN(c2ccccc2OC)S(=O)(=O)c2cccs2)c1 | inconclusive [inhibitor, partial curve, poor fit]
COc1ccc(NC(=O)c2ccc(CN3CCN(c4ccccc4)CC3)cc2)cc1 | inconclusive [inhibitor, partial curve, poor fit]
CCOC(=O)c1sc(NC(=O)CN2C(=O)NC3(CCC(C)CC3)C2=O)c(C(=O)OCC)c1C (stereo unspecified) | inconclusive [inhibitor, partial curve]
CN1c2ccccc2C(C)(C)[C@]12C=Cc1cc(O)ccc1O2 | inconclusive [inhibitor, partial curve, poor fit]
CCc1ccc(C(C(=O)NC(C)(C)CC)N(Cc2ccco2)C(=O)Cn2nnc3ccccc32)cc1 (stereo unspecified) | active: 11.7 µM
CCCNC(=O)c1ccccc1NC(=O)CN(c1ccccc1)S(=O)(=O)N(C)C | inconclusive [inhibitor, single point]
Cc1onc(-c2c(Cl)cccc2Cl)c1C(=O)N1CCN(c2ncccn2)CC1 | inconclusive [inhibitor, partial curve, poor fit]
O=P(C(=Nc1ccc(Cl)cc1)N1CCOCC1)(N1CCOCC1)N1CCOCC1 | inactive
O=C(NCCOc1ccccc1)c1cc(S(=O)(=O)N2CCOCC2)ccc1F | inactive
CC(=O)Nc1ccc(SC[C@H](CC(C)C)N2CCN(CC(C)C)CCC2=O)cc1 | inconclusive [inhibitor, single point]
CC(C)C(=O)N1CCN(c2ccccc2NC(=O)Cc2ccc(Cl)cc2)CC1 | active: 13.1 µM
CC(=O)c1ccc(NC2OC(C)C(O)C(O)C2O)cc1 (stereo unspecified) | inactive
CCOC(=O)C1(CC2CCCCO2)CCN(S(=O)(=O)c2cccc(F)c2)CC1 (stereo unspecified) | inconclusive [inhibitor, partial curve, poor fit]
Oc1ccccc1-c1nc2c3ccccc3c3ccccc3c2[nH]1 | active: 9.28 µM
CCOC(=O)C1=C(N)Oc2cc(C)oc(=O)c2C12C(=O)N1c3c(cccc32)C(C)=CC1(C)C (stereo unspecified) | inconclusive [inhibitor, partial curve, poor fit]
COc1ccc(C(C(=O)NC(C)(C)C)N(C(=O)CNC(=O)c2cccs2)c2ccc(C)cc2)cc1OC (stereo unspecified) | inconclusive [inhibitor, single point]
CCc1c(C)nc(Nc2nc(C)c3cc(OC)ccc3n2)[nH]c1=O | inconclusive [inhibitor, partial curve, poor fit]
COc1ccc(CCC(=O)Nc2cccc(S(=O)(=O)N3CCCC3)c2)cc1OC | inconclusive [inhibitor, single point]
CCOC(=O)Cc1cc(=O)n2[nH]c(C)c(-c3ccc(Cl)cc3)c2n1 | inconclusive [inhibitor, partial curve, poor fit]

Structure (SMILES) | Potency
COC(=O)c1c(C(=O)OC)c2cc(C(=O)c3ccccc3)ccn2c1Cl | inconclusive [inhibitor, single point]
CC(Nc1ncnc2nc[nH]c12)c1ccccc1 (stereo unspecified) | inconclusive [inhibitor, partial curve, poor fit]
Cc1ccc(N(Cc2ccccc2)C(=O)CN2C(=O)NC3(CCCC3)C2=O)cc1 | inconclusive [inhibitor, single point]
Cc1onc(-c2ccccc2)c1C(=O)N1CCN(c2ncccc2C(F)(F)F)CC1 | inconclusive [inhibitor, full curve, poor fit]
CN1C(=O)/C(=C\c2ccccc2F)Sc2ccc(C(=O)NC3CCN(Cc4ccccc4)CC3)cc21 | active: 1.65 µM
COc1ccc(CC(=O)OCC(=O)N2CCN(S(=O)(=O)c3ccc(C)cc3C)CC2)cc1 | inconclusive [inhibitor, single point]
CCOc1ccc(C(=O)C[n+]2cccc3cc(C)ccc32)cc1 | active: 8.28 µM
COc1ccc(C(=O)NC(Nc2ccc(C)cc2)C(Cl)(Cl)Cl)cc1 (stereo unspecified) | inconclusive [inhibitor, partial curve, poor fit]
O=C(CN1C(=O)C2CC=CCC2C1=O)Nc1ccccc1N1CCCC1 (stereo unspecified) | inactive
COc1ccc(C(C)=O)cc1COc1ccccc1[N+](=O)[O-] | inactive
Cc1ccc(C(=O)Nc2ccccc2N2CCCCC2)cc1 | inconclusive [inhibitor, single point]
CC(C)(C)c1ccc(C(=O)N/C(=C/c2cccs2)C(=O)NCc2ccco2)cc1 | inconclusive [inhibitor, single point]
COc1cccc(NC(=S)N(CCCN2CCOCC2)C(C)c2cc3cccc(OC)c3o2)c1 (stereo unspecified) | inconclusive [inhibitor, partial curve, poor fit]
COCC(=O)N(CCc1ccc(OC)cc1)Cc1nc2ccccc2c(=O)[nH]1 | inconclusive [inhibitor, partial curve, poor fit]
Cc1ccc(C)c(S(=O)(=O)N2CCN(C(=O)c3sccc3C)CC2)c1 | inconclusive [inhibitor, single point]
CCC(C)NC(=O)c1ccc(CSCc2ccc(Cl)cc2)o1 (stereo unspecified) | inconclusive [inhibitor, partial curve, poor fit]
CC(=O)c1cccc(NC(=O)CSc2ncc(C(=O)Nc3ccccc3)c(=O)n2C)c1 | inactive
O=C(COc1ccccc1)NC(NC(=S)Nc1ccccc1O)C(Cl)(Cl)Cl (stereo unspecified) | inconclusive [inhibitor, partial curve, poor fit]
Cc1cc(C(=O)NNC(=S)Nc2ccccc2)nn1C | inactive
Cc1cc(Nc2nn(C)c(N)c2C#N)ccc1F | inactive
Cc1nn(-c2ccccc2)c2nc(-c3ccco3)cc(C(=O)O)c12 | inconclusive [inhibitor, single point]
COc1ccc(NC(=O)c2cc3n(n2)C(C(F)(F)F)CC(c2ccc(OC)cc2)N3)cc1 (stereo unspecified) | inconclusive [inhibitor, partial curve, poor fit]
